In PubChem BioAssay AID1814 (Broad Institute, 2009):
Among all 300,000 compounds or so, about 22,000 (7.3%) were called active. This list was built around the results that the source calls inconclusive (neither active nor inactive); the mix of calls is not that of the screen. Rule as the data show it: active = activity score below about -60%; inconclusive = mostly about -28% to -61%; inactive = positive scores.

assay: Activators via SNCA 5'UTR binding, MLPCN (AID 1814); conditions: alpha-synuclein 5'UTR reporter, activators screen; active compounds read low; tested at 7.5 µM

| SMILES | activity score |
| --- | --- |
| CC1CCN(C(=O)CCNS(=O)(=O)c2ccccc2)CC1 | inconclusive: -54.8% |
| O=C(N/N=C/c1ccccc1O)c1ccc2c(c1)OCO2 | inconclusive: -46.9% |
| CCOc1ccc(NC(=O)C(=O)N/N=C\c2ccc(CNS(=O)(=O)c3ccccc3)o2)cc1 | inconclusive: -50.5% |
| Cc1cccc(-n2nc([N+](=O)[O-])c(=NCc3cccnc3)n2O)c1 | inconclusive: -59.2% |
| Cc1ccc(SCCN2CCN(C)CCC2=O)cc1 | inconclusive: -55.7% |
| CCOc1ccc(/C=C2\SC(N3CCCCC3)=NC2=O)cc1 | inconclusive: -46.4% |
| COc1ccccc1C(=O)Nc1nc2ccccc2s1 | inactive: 109% |
| N/C(=N\OC(=O)c1ccccc1Br)c1cccc([N+](=O)[O-])c1 | active: -77% |
| Cn1nc(C(F)(F)F)c2cc(C(=O)Nc3ccc(Cl)cc3)sc21 | inconclusive: -47.2% |
| N/C(=N\OC(=O)c1ccc(Cl)cc1Cl)c1ccccn1 | inactive: 88.8% |
| Cc1cc(NC(c2cccnc2)c2ccc3cccnc3c2O)no1 (configuration not stated) | inactive: 77.3% |
| Cc1nn(C)c(C)c1CNC(=O)Nc1cccc(Cl)c1C | inconclusive: -52.7% |
| COCCCNC(=O)c1c(N)n(/N=C/c2cccnc2)c2nc3ccccc3nc12 | inconclusive: -41.2% |
| Cc1ccc(C(=O)/C=C/Nc2ccccn2)cc1 | inactive: 75.3% |
| Cc1c(C(=O)NC(=S)Nc2ccc(NC(=O)c3cccs3)cc2)oc2ccccc12 | inconclusive: -46.6% |
| O=C(COC(=O)COc1ccc(Cl)cc1Br)NCc1cccs1 | inconclusive: -32.9% |
| CC(C)(C)C(=O)Nc1ccc(NC(=O)C(C)(C)C)cc1 | inconclusive: -50.2% |
| Cc1ccc2[nH]c(-c3ccccc3)c(CN3CCN(C)CC3)c(=O)c2c1 | inconclusive: -61.2% |
| Cc1ccc(-c2nnc(SCC(=O)N3CCCC3)o2)cc1C | active: -83% |

| SMILES | activity score |
| --- | --- |
| Cc1ccc(NC(=O)N2CCN(c3ccccn3)CC2)cc1 | inconclusive: -38.2% |
| CCNC(=O)COc1ccc(Br)cc1Cl | inconclusive: -61.1% |
| O=C(O)c1ccc(S(=O)(=O)c2ccc3c(c2)C(=O)N(CC2CCCO2)C3=O)cc1 (configuration not stated) | inconclusive: -31.2% |
| CC(=O)Nc1ccc(OCc2cccc([N+](=O)[O-])c2)cc1 | inconclusive: -59.4% |
| O=C(Nc1nccs1)C1Cc2ccccc2CN1S(=O)(=O)c1ccc(F)cc1 (configuration not stated) | inconclusive: -58.5% |
| COc1cc(NC(=O)Cn2ncc(Cl)c(Cl)c2=O)c(C)cc1[N+](=O)[O-] | inactive: 121% |
| O=C(Cc1cccs1)Nc1ccc(NC(=O)c2ccco2)cc1 | inconclusive: -59.8% |
| CNC[C@H](Cc1ccccc1)NC[C@@H](Cc1cccc2ccccc12)NCCc1ccc(C)cc1 | inactive: 123% |
| C=CCn1c(=O)/c(=C2/Sc3cc(OC)ccc3N2C)s/c1=C1\C(=O)N(CC)C(=S)N1C | active: -98% |
| C=CC[n+]1c(/C=C2\C=Cc3cc(C)ccc3N2CC)ccc2ccccc21 | inactive: 67.2% |
| O=C(NNC(=O)c1cccnc1SCc1cccc([N+](=O)[O-])c1)c1ccccn1 | inactive: 103% |
| COc1ccc2nc(SCC(=O)NC3CC3)c(C#N)cc2c1 | active: -68.3% |
| Cc1ccc(-n2nnnc2-c2nc3ccccc3s2)cc1 | inconclusive: -56.5% |
| Brc1ccc(-c2nnc(SCCC3OCCCO3)o2)cc1 | inconclusive: -56.8% |
| COc1ccc(C#Cc2c(-c3ccsc3)oc3ccc(N4CCOCC4)cc23)cc1 | inconclusive: -60.4% |
| COc1ccc(-c2ccc(SCC(=O)N3CCOCC3)nn2)cc1 | inconclusive: -47.8% |
| COc1ccccc1-n1cc(-c2ccc([N+](=O)[O-])cc2)[nH]c1=S | inconclusive: -41% |
| Cc1nc([N+](=O)[O-])c(Br)n1CC(=O)c1ccc(Cl)cc1 | inconclusive: -35.3% |
| COc1ccc(OC)c2c1sc(=NC(=O)c1ccco1)n2C | inconclusive: -44.9% |

| SMILES | activity score |
| --- | --- |
| O=C(CN1CC(=O)Oc2ccccc21)OCC(=O)c1ccc(F)cc1 | inconclusive: -48.5% |
| CCOC(=O)N1CCN(S(=O)(=O)c2ccc(C(=O)N(CCN(C)C)c3nc4ccc(Cl)cc4s3)cc2)CC1 | inconclusive: -40.4% |
| O=C(O)c1ccc(N/N=C/C=C/c2ccccc2[N+](=O)[O-])cc1 | active: -127% |
| CCOC(=O)c1oc2ccc(CNC(C)(C)C)c(Cl)c2c1C | inconclusive: -44.2% |
| CCOc1ccc(S(=O)(=O)Nc2ccccc2C(=O)N/N=C/c2c(OC)ccc3ccccc23)cc1 | inconclusive: -37.4% |
| COc1ccc(OC)c(N(C(=O)c2ccco2)C(C(=O)NC2CCCC2)c2cc(OC)c(OC)c(OC)c2)c1 (configuration not stated) | inconclusive: -37% |
| FC(F)(F)c1ccc(Cl)c(NC(=S)N/N=C/c2ccccc2C(F)(F)F)c1 | inconclusive: -56.2% |
| Cc1ccc(N(C(C)C(=O)N2CCOCC2)S(C)(=O)=O)cc1C (configuration not stated) | inconclusive: -22.6% |
| O=C(CN1C(=O)c2ccccc2S1(=O)=O)N1CCc2ccccc21 | inactive: 93.5% |
| O=C(NC1CC2CCC1C2)c1ccc(CN2CCOCC2)cc1 (configuration not stated) | inconclusive: -52.3% |
| Cc1cc(C(=O)COc2cccnc2[N+](=O)[O-])c(C)n1-c1ccccc1 | inactive: 99.8% |
| CS(=O)(=O)c1ccc2nc(NC(=O)c3cc(-c4ccccc4)nn3-c3ccccc3)sc2c1 | inconclusive: -56% |
| NNc1nc(-c2ccccc2)cs1 | active: -91.7% |
| O=S(=O)(Nc1ccc2c(c1)CCC2)c1cccs1 | inconclusive: -48.9% |
| CC(=C/c1ccccc1)/C=N/NC(=O)c1ccc2nc[nH]c2c1 | inconclusive: -55.7% |
| COC(C(=O)N1CCC(n2nccc2NC(=O)C2CC2)CC1)c1ccccc1 (configuration not stated) | inconclusive: -60.8% |
| Cc1ccc(NC(=O)c2ccc3c(c2)nnn3C)cc1 | inconclusive: -51.2% |
| C/C(=N\NC(=O)CSCc1ccccc1Cl)c1cc(O)ccc1O | inactive: 61.8% |
| CCNC(=S)N1CCC(C(O)(c2ccccc2)c2ccccc2)CC1 | inconclusive: -21.6% |
